Data from PubChem BioAssay AID1963576 (National Center for Advancing Translational Sciences (NCATS), 2024).
Out of some 46,000 compounds screened, about 60 (0.1%) were called active. About 3% were inconclusive and are not listed. Calls follow the shape of the dose curve; as a rule, active = well fitted inhibition curve with a large enough effect; inconclusive = small, poorly fitted or top-dose-only effect; inactive = no such curve, though single readings can be large or run the other way. The list shows a part of the results.

Assay: Primary qHTS assay for Inhibitors of ovarian cancer metastasis using an organotypic tumor microenvironment (TME) model. Also: nearly all actives have a fitted effect of over 65% in size.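 As to activity change, negative = inhibition: plate controls were DMSO wells for no effect and tomatine positive control wells for full effect.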
Conditions: SKOV3ip1-GFP adhesion/invasion on 3D omental model, fluorescence; series mostly up to 45.8 µM; activity change, negative = inhibition: at the top concentration
Method in brief: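 A 3D layer of primary human omental fibroblasts, mesothelial cells, fibronectin and collagen I, grown 48 hr, received SKOV3ip1-GFP cells in serum-free medium plus compounds at 0.36-46 umol/L. After 2 hr RT and 16 hr 37 C, fixed adherent GFP cells were counted; normalized to DMSO and tomatine.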

Activity change, negative = inhibition, inactive:
O=C(Nc1cc(F)ccc1F)C1COc2ccccc2C1 (stereo not given) 15.1%, CCc1ccc(NC(=O)c2cc3c(=O)n(Cc4cccs4)ccc3nc2C)cc1 -22%, COc1ccc(Cl)cc1NC(=O)CN(c1cc(C)cc(C)c1)S(=O)(=O)c1c(C)n[nH]c1C 56.7%, O=S(=O)(c1ccccc1)N1CCC(c2ccncc2)CC1 -24.3%, Cc1nn(CC(=O)NCCc2ccccc2Cl)c(=O)c2nn(-c3ccccc3)c(C)c12 8.15%, CC(=O)c1cc(-c2ccc(F)cc2)n(CCC(=O)Nc2nc3c(C)cccc3s2)c1C 11.2%, Cc1ccc2c(c1)c1c(c(=O)n(-c3ccccc3C)c(=O)n1CC(=O)NCCC1=CCCCC1)n2C 13.6%, COc1ccc(CNCc2c(C(=O)O)c(C)n(Cc3ccc(Cl)cc3)c2C)c(OC)c1 -15.5%, CCOc1ccc(CNC(=O)Cn2nc(C)c3nn(-c4ccc(Cl)cc4)c(C)c3c2=O)cc1OC 8.48%, CCC(C)NC(=O)c1sc2nc(C)c(C(=O)Nc3ccc(C)cc3C)c(-c3ccc(Cl)cc3)c2c1N (stereo not given) 2.7%, Cc1ccc(-n2ncc3c(NC4CCCCC4)ncnc32)cc1 -5.59%, COC(=O)c1cnn(-c2ccc(C(=O)Nc3ccc(C(C)=O)cc3)cc2)c1N 3.01%, Cc1ccc(-c2cc(C(=O)Nc3c(C(=O)c4ccccc4)oc4ccccc34)no2)cc1F -1.67%, CC(C)(C)c1ccc(S(=O)(=O)NCc2nc3cccnc3n2Cc2ccccc2Cl)cc1 -18.8%, Cc1ccc(CNS(=O)(=O)c2c(C)nc3scc(C)n3c2=O)cc1 -4.69%, O=C(CSc1nc(-c2ccccc2)[nH]c1-c1ccccc1)Nc1ccc2c(c1)OCCO2 3.67%, Cc1nc(N2CCCC2)c2c(C(=O)N3CCN(c4cccc(C)c4C)CC3)c(C)oc2n1 -10.3%, COc1ccc(S(=O)(=O)N2CCN(Cc3ccc4c(c3)OCO4)CC2)cc1OC -5.65%, CN(CC(=O)Nc1ccccc1Cl)S(=O)(=O)c1ccc(C(=O)N2CCOCC2)s1 125%, CCCSCCCNC(=O)c1ccc2c(c1)nc1n2CCCCC1 -1.74%, O=C(CSc1ccccc1)NCc1ccc2c(c1)CCN2C(=O)c1ccc(F)cc1 3.07%, Cn1cnc(S(=O)(=O)N2CCC(C(=O)NCc3ccc(Cl)cc3)CC2)c1 2.35%, COc1ccc(CNC(=O)c2cc3c(=O)n(C)c4ccccc4c3n2C)cc1 4.35%, O=C(COc1ccccc1)Nc1nnc(S(=O)(=O)N2CCCCCC2)s1 3.53%, Cc1ccccc1-c1nnc(C2CCN(S(=O)(=O)c3ccc(Cl)cc3)CC2)o1 -21%, CCc1ccc(CNC(=O)CCCN2C(=O)c3cccnc3Oc3ccc(Cl)cc32)cc1 31.2%, O=C(Nc1cccc2cccnc12)c1ccc(F)cc1 1.82%, CCOC(=O)c1ccc(N2C(=O)c3[nH]nc(-c4ccc(OCC)cc4)c3C2c2ccc(OC)cc2OC)cc1 (stereo not given) -7.81%, CCc1ccc2oc(-c3ccc(NC(=O)c4cc(OC)c(OC)c(OC)c4)cc3)nc2c1 -10.4%, CCOc1cc(C2CC(=O)Nc3nc(SCc4ccccc4)[nH]c(=O)c32)ccc1O (stereo not given) 10.4%, CCC(C)NC(=O)c1ccc2c(c1)N(Cc1ccccc1)C(=O)c1ccccc1S2 (stereo not given) -8.08%, Cc1ccccc1-n1c(SCc2ccc(Cl)cc2)nc2[nH]ncc2c1=O -2.84%, CCOc1ccc(CNC(=O)C2CCCN(S(=O)(=O)c3ccc4c(ccn4C)c3)C2)cc1 (stereo not given) -12.6%, CCN(CC)c1cc2c(cc1F)c(=O)c(S(=O)(=O)c1ccc(OC)cc1)cn2CC 13.2%, CCOC(=O)c1ccccc1NC(=O)N(C(C)C)C1CCN(C(C)=O)CC1 -7.44%, CCOC(=O)Cn1c(=O)n(-c2ccccc2OC)c2nc(-c3cccc(F)c3)nc(C(N)=O)c21 -8.3%, COc1ccc(-c2c3c(=O)n(C)c(=O)n(C)c3c3c(C)nc4ccccc4n23)cc1 0.52%, Cn1nnc2c(N3CCN(c4ccccc4Cl)CC3)ncnc21 -7.42%, COc1ccc(-c2nc(CN3CCC(C(=O)NCc4ccccc4)CC3)c(C)o2)cc1OC 3.13%, O=C(NCCc1ccccc1)c1nnc(Cc2cccc(F)c2)o1 -12.7%, COc1ccc(-c2nc(C)c(CCNS(=O)(=O)c3cc(C)c(C)cc3C)s2)cc1 -14.7%, CN(C)CCNC(=O)c1ccc2c(=O)n3c(nc2c1)CCCCC3 -9.71%, CCOC(=O)c1cccnc1SCC(=O)Nc1ccc(C)cc1C 9.34%, COC(=O)N[C@H](C(=O)N1CCC[C@@H]1c1ncc(-c2ccc(-c3ccc(-c4cnc([C@@H]5CCCN5C(=O)[C@@H](NC(=O)OC)C(C)C)[nH]4)cc3)cc2)[nH]1)C(C)C -7.89%, CCN(Cc1ccccc1)C(=O)CN(c1ccc(OC)cc1)S(=O)(=O)c1c(C)nn(C)c1C 7.25%, CCc1ccc(NC(=O)c2ccc3[nH]c(C)c(C)c3c2)cc1 4.13%, Cc1ccc(C)c(Cn2cc(S(=O)(=O)c3ccc(Cl)cc3)c(=O)c3cc(F)ccc32)c1 1.03%, CCOc1ccc(NC(=O)Cn2c(=O)n(-c3cccc(OC)c3)c(=O)c3c4c(sc32)CCCC4)cc1 0.175%, COc1ccc(Cl)cc1NS(=O)(=O)c1ccc2c(c1)NC(=O)CC(=O)N2 2.49%, CCSc1ncc(Cl)c(C(=O)Nc2ccc(S(=O)(=O)N3CCCCC3)cc2)n1 -11.2%, O=C(CCS(=O)(=O)c1cccs1)Nc1ccc(C(=O)Nc2ccccc2F)cc1 1.88%, COCCNC(=O)Cn1c(=O)n(CCCCCC(=O)NCc2ccc3c(c2)OCO3)c(=O)c2sccc21 -4.75%, CCOCCCNc1ncnc2c1cnn2-c1ccc(C)c(C)c1 -30.9%, Cc1cc2c(cc1S(=O)(=O)N1CCCCC1)OCC(=O)N2 10.4%, CCOC(=O)C1CCN(C(=O)Cn2c(=O)oc3cc(S(=O)(=O)N4CCC(C)CC4)ccc32)CC1 11.3%, Cc1ccc(-c2c(C)n3c4c(=O)n(C)c(=O)n(C)c4nc3n2CCO)cc1 3.67%, CC(C)(C)c1ccc(S(=O)(=O)N2CCN(Cc3noc(CCC(=O)N4CCCCC4)n3)CC2)cc1 -5.89%, CCNc1nc(OC)nc(Oc2ccc(=O)[nH]n2)n1 17.6%, COc1ccc(-c2nc(CSc3nncn4c3cc3sccc34)c(C)o2)cc1OC -0.983%, Cc1ccc(-c2nc3sc(CCNC(=O)c4ccc(C)c(C)c4)c(C)n3n2)cc1 -17.5%, COc1ccc(C(=O)n2nc(-c3ccco3)nc2NCc2cccs2)cc1OC -6.17%, CCc1ccc(NC(=O)CSC2=Nc3ccccc3C3=NC(CCC(=O)NCc4ccco4)C(=O)N23)cc1 (stereo not given) -0.477%, COc1ccc(-c2nnc(SCC(=O)Nc3ccc(C(C)C)cc3)nc2-c2ccc(OC)c(OC)c2)cc1OC -6.41%, COc1ccc(NC(=O)CC2C(=O)N(c3cccc(C)c3)C(=O)N2C2CCCCC2)cc1 (stereo not given) 1.99%, CC(=O)c1cccc(NC(=O)c2cc(-c3ccc(Cl)s3)nc3ccccc23)c1 1.93%, CCOc1ccccc1CNS(=O)(=O)c1ccc2[nH]c(=O)ccc2c1 -13.3%, CC(C)Cc1ccc(S(=O)(=O)Nc2cc3c(cc2N2CCOCC2)n(C)c(=O)c(=O)n3C)cc1 -6.58%, Cc1ccc(C)c(Cn2c(-c3cccs3)nc3ccccc32)c1 -0.0844%, COc1cccc(C(=O)Nc2ccc(-c3cc(C(F)(F)F)nn3-c3ccccc3)cc2)c1 -5.66%, CCC(C)(Oc1ccc(C2(c3ccc(OC(C)(CC)C(=O)O)cc3)CCCCC2)cc1)C(=O)O (stereo not given) -18.2%, CC(C)c1ccc(S(=O)(=O)c2nnn3c2nc(N2CCCCC2)c2sccc23)cc1 -0.725%, COc1cccc(Nc2sc(C(=O)c3ccc(F)cc3)c(N)c2C(=O)NCc2ccc(Cl)cc2)c1 3.94%

outcome, inactive:
O=C1COc2cc(S(=O)(=O)CCC(=O)N3CCN(c4cccc(Cl)c4)CC3)c(Cl)cc2N1, O=C(CN1CCSc2ccccc21)N1CCN(c2cccc(Cl)c2)CC1, Cc1ccc(Cc2nc3ccccc3nc2SCC(=O)Nc2cccc(C(F)(F)F)c2)cc1, CC(C)c1ccccc1NC(=O)CN1C(=O)c2cccc3cccc1c23, CCC(=O)Nc1ccc2nc(SCc3ccc(C)cc3)sc2c1, CC(C)c1cc(-c2nc(-c3ccccc3)no2)n[nH]1, Cc1ccc(Nc2cc(C)c(C#N)c3nc4ccccc4n23)cc1Cl, O=C(Cc1ccccc1)N(Cc1cccnc1)c1nc2ccc(F)cc2s1, COCCNC(=O)c1nn(-c2ccc(Cl)cc2)nc1CO, COc1cccc(N2CCN(C(=O)CCc3c(C)nc4c(c3C)c(=O)n(C)c(=O)n4C)CC2)c1, Cc1ccc(-c2nnc(SCc3cccc(C#N)c3)o2)cc1, CC(C)(C)c1ccc(-c2nc(SCCCOc3ccccc3)n3[nH]c(=O)cc3n2)cc1, Cc1ccc2c(c1)-c1c(cnc3cc(-c4ccccc4)nn13)CO2, CCCCN(CCCC)CCNC(=O)c1cn(CC)c2ccc(S(=O)(=O)N(C)C3CCCCC3)cc2c1=O, Cc1ccccc1NC(=O)CSc1nc2c(c(=O)n(C)c(=O)n2C)n1Cc1ccccc1F, CC(=O)N1CCc2c(sc3c2c(=O)n(CCc2ccccc2)c(=O)n3Cc2ccc(Cl)cc2)C1, O=C(CN1C(=O)CCc2cc(S(=O)(=O)N3CCOCC3)ccc21)NCc1ccccc1, CCc1ccccc1NC(=O)N(C)CCc1c(C)nn(C)c1C, Cc1cc(C)cc(S(=O)(=O)c2cn(C)c3cc(N4CCCC4)c(F)cc3c2=O)c1, CCCNC(=O)c1ccc2nc(CCc3ccccc3)oc2c1, Cc1ccc(C)c(CN2C(=O)N(c3cc(Cl)ccc3C)S(=O)(=O)c3ccccc32)c1, Cc1cccc(NC(=O)CCCCCn2c(=O)[nH]c3ccsc3c2=O)c1, CCOc1ccc(CCNC(=O)CCCn2nc(C)c3sc4ccccc4c3c2=O)cc1
